Laboratory results published in ChEMBL document CHEMBL1201862, “PubChem BioAssay data set” (2004).
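Protocol summary: plate cells (96-well), add compound at 5 concentrations, incubate 48 h, interpolate endpoints linearly. Here, GI50 denotes the concentration required for 50% inhibition of growth.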 Calls of active or inactive are those of the source. Cut-off read from the data, not from the text of the source: active = GI50 up to about 1.1 µM and inactive = higher.

Legend:
Experiment in all cases: NCI tumour cell line growth inhibition, 48 h
NCI-H522 = system: NCI-H522
HCT-116 = system: HCT-116
RXF 393 = system: RXF 393
LOX IMVI = system: LOX IMVI
SR = system: SR
MCF7 = system: MCF7
TK-10 = system: TK-10
HOP-92 = system: HOP-92
NCI/ADR-RES = system: NCI/ADR-RES
A498 = system: A498
CCRF-CEM = system: CCRF-CEM
RPMI-8226 = system: RPMI-8226
HL-60 = system: HL-60
OVCAR-4 = system: OVCAR-4
MDA-MB-435 = system: MDA-MB-435
UO-31 = system: UO-31
SNB-75 = system: SNB-75
EKVX = system: EKVX
K562 = system: K562
Malme-3M = system: Malme-3M
NCI-H460 = system: NCI-H460
T47D = system: T47D
MOLT-4 = system: MOLT-4
CAKI-1 = system: CAKI-1

## CCCC(=O)Oc1cc2c(c(OC)c1OC)-c1ccc(SC)c(=O)cc1[C@@H](NC(C)=O)CC2
NCI-H522
  GI50: active: 1.94 nM
HCT-116
  GI50: active: 2.51 nM
RXF 393
  GI50: active: 2.88 nM
LOX IMVI
  GI50: active: 2.79 nM
SR
  GI50: active: 2.01 nM
MCF7
  GI50: active: 4.14 nM
TK-10
  GI50: inactive: 94800 nM
HOP-92
  GI50: active: 4.73 nM
NCI/ADR-RES
  GI50: active: 962 nM
A498
  GI50: active: 220 nM
CCRF-CEM
  GI50: active: 5.04 nM
RPMI-8226
  GI50: active: 3.48 nM
HL-60
  GI50: active: 2.17 nM
OVCAR-4
  GI50: inactive: 9930 nM
MDA-MB-435
  GI50: active: 1.39 nM
UO-31
  GI50: active: 719 nM
SNB-75
  GI50: active: 10 nM
EKVX
  GI50: inactive: 1120 nM
K562
  GI50: active: 2.94 nM
Malme-3M
  GI50: active: 13.6 nM
NCI-H460
  GI50: active: 7.36 nM
T47D
  GI50: inactive: 10000 nM
MOLT-4
  GI50: active: 4.36 nM
CAKI-1
  GI50: inactive: 5120 nM
